Data on 85 compounds can be found in ChEMBL document CHEMBL4888484, “Replenishing the malaria drug discovery pipeline: Screening and hit evaluation of the MMV Hit Generation Library 1 (HGL1) against asexual blood stage Plasmodium falciparum ,using a nano luciferase reporter read-out” (2022).

Out of some 150,000 compounds screened, about 540 (0.36%) showed an effect of 50% or more. This is one part of the list.

In general, % Inhibition refers to the drop in the measured response relative to a control, in per cent.

The subject of this assay is Plasmodium falciparum. Put plainly: Primary screen in NF54 nanoGlo assay, in single point, at 2uM, 72h; a lower Z score goes with more inhibition. It counts as functional, Erythrocyte. The conditions noted are these: timepoint 72 hour.
As for `COCC[C@H]1CCCN(C(=O)c2cncn2C)C1`, the “% Inhibition” value is on record as -8% and the Z score turned out to be 1.22.
As for `Cc1ccc(C(=O)N[C@H]2CCCN(Cc3ccccc3)C2)n1C`, the “% Inhibition” value came out at 4% and the Z score is reported as -0.76.
As for `CC[C@@]1(C2CC2)NC(=O)N(CC(=O)c2ccccc2C)C1=O`, the “% Inhibition” value worked out at 9% and the Z score is -1.45.
Turning to `CO[C@H]1C[C@@H](O)C12CCN(c1cccc(C#N)n1)CC2`, the “% Inhibition” value is listed as -16% and the Z score is reported as 2.05.
In the case of `CCOc1ccc(C(=O)N2CCC[C@@]3(C2)Nc2cccnc2N=C3NC2CCCC2)cc1`, the “% Inhibition” value was found to be 28% and the Z score was -3.21.
Take `COCCN(Cc1ccc(C)s1)C(=O)NCc1cscn1`: the “% Inhibition” value was 1% and the Z score was -0.13.
In the case of `Cc1c(N2CCC(C(=O)N3CCN(C4CCCCC4)CC3)CC2)c(=O)n(C)c(=O)n1-c1ccccc1`, the “% Inhibition” value is reported as -6% and the Z score is recorded as 1.14.
`CC[C@H](C)NC(=O)CN1C=NS(=O)(=O)c2ccccc21`: the “% Inhibition” value is on record as -10% and the Z score is recorded as 1.17.
Turning to `CC(C)(CO)CNC(=O)c1cc(COc2cccc3cccnc23)on1`, the “% Inhibition” value is given as -3% and the Z score was determined as 0.39.
Turning to `COc1cc(C)c(-c2ccc(C(=O)N(C)Cc3cc(C)no3)cc2)cn1`, the “% Inhibition” value is 2% and the Z score is -0.45.
Taken in the same sequence, the figures for `COC(=O)c1nc(NC(=O)Cn2cnnn2)sc1CC(C)C` were 0% and 0.08.
For the compound `Cc1ccc2oc(N3CCC(N4CCOCC4)CC3)nc2c1`, the “% Inhibition” value is -2% and the Z score was 0.29.
Take `CCn1c(=O)c2sccc2n(CC(=O)NC2CCCCC2)c1=O`: the “% Inhibition” value was -8% and the Z score amounted to 1.2.
For the compound `COCCn1nnnc1NC(=O)c1ccoc1Cl`, the “% Inhibition” value was determined as 4% and the Z score is -0.77.
On to `CC(C)(C)c1ccc(C(=O)N2CC[C@H](Oc3ncc(Br)cn3)C2)cc1`, for which the “% Inhibition” value is given as -6% and the Z score is listed as 0.88.
Consider `O=C(Cc1ccc(F)c(Br)c1)NCCCC1(C2OCCO2)CCOCC1`, for which the “% Inhibition” value came to 1% and the Z score is -0.18.
`Cc1nc(C)c([C@H](C)NC(=O)NCC2CC2)s1`: the “% Inhibition” value amounted to 0% and the Z score amounted to 0.03.
With `Cc1ccc(C2Nc3ccccc3C(=O)N2CC2CCCO2)o1` (stereo not given), the “% Inhibition” value is recorded as -44% and the Z score is on record as 5.12.
On the same counts, the results for `COc1ccc(OC)c(CN2CCc3nc(N4CCCC4)ncc3C2)c1` are -3% and 0.5.
Take `c1ccc(-c2nnc(N3CCC(NCCCn4ccnn4)CC3)s2)cc1`: the “% Inhibition” value is given as 10% and the Z score is on record as -1.38.
On to `CC[C@H]1C[C@@H](NC(C)=O)C[C@@H](c2ccc(O)cc2)O1`, for which the “% Inhibition” value was -10% and the Z score came out at 1.21.
Taken in the same sequence, the figures for `C[C@@H](CN1CCN(c2ccccc2)CC1)Nc1cc(C(N)=O)ccn1` were -4% and 0.79.
Consider `CC(C)N1C[C@H]2CN(C(=O)CCCc3ccccc3)C[C@@]2(C(=O)N(C)C)C1`, for which the “% Inhibition” value is listed as -19% and the Z score amounted to 2.57.
Take `C[C@H]1CCCCN1CCNC(=O)c1ccc2c(c1)nc1n2CCN(Cc2ccccn2)C1=O`: the “% Inhibition” value is recorded as -1% and the Z score is given as 0.12.
On the same counts, the results for `COc1cc(C(=O)N2CCC[C@H](C(=O)c3nccn3C)C2)ccn1` are -15% and 1.93.
`Cc1cc(C(C)NC(=O)C(NS(C)(=O)=O)C(C)(C)C)c(C)s1` (stereo not given): the “% Inhibition” value was -4% and the Z score is on record as 0.62.
`Cc1cccc(N(CC(C)(C)C)C(=O)[C@H]2CCc3nc(C)nn3C2)n1`: the “% Inhibition” value is given as 2% and the Z score is given as -0.21.
`Cc1cnc(C(=O)Nc2cccc3ccccc23)cn1`: the “% Inhibition” value is -7% and the Z score came to 0.94.
Consider `C[C@@H](Cc1ccccc1F)NC(=O)c1ccc2c(c1)OCO2`, for which the “% Inhibition” value is -10% and the Z score was 1.47.
As to `Cc1cccc(Cl)c1OCCNC(=O)c1cc(-c2ccc(O)cc2)n[nH]1`, the “% Inhibition” value was -3% and the Z score is 0.41.
Consider `Cc1cccc(-c2noc(-c3sc(-c4ccccc4)nc3C)n2)c1`, for which the “% Inhibition” value is reported as 0% and the Z score amounted to 0.03.
Taken in the same sequence, the figures for `O=C1CC2(CCN(C(=O)N3CCOCC3)CC2)CN1C/C=C/c1ccccc1` were 1% and -0.14.
On the same counts, the results for `C[C@H]1[C@@H](C(F)(F)F)OCCN1C(=O)NC1CCC(=O)NC1C1CCCO1` (stereo not given in full) are -14% and 1.95.
For `COc1ccccc1CNC(=O)c1ccc(-c2ccsc2)nc1`, the “% Inhibition” value was -2% and the Z score was found to be 0.22.
With `O=C(Nc1ccc(Oc2ccccc2)cc1)c1ccc2c(c1)OCO2`, the “% Inhibition” value amounted to 2% and the Z score is recorded as -0.25.
Turning to `CC(C(=O)N[C@H](C)C1CCN(c2ncnc3c2ncn3C)CC1)=C1CCCC1`, the “% Inhibition” value is reported as -1% and the Z score is 0.14.
On to `COc1ccc(NC(=O)CCc2c(C)nn(-c3ccc4nnc(C)n4n3)c2C)c(OC)c1`, for which the “% Inhibition” value stood at 6% and the Z score is recorded as -0.74.
With `COc1ccccc1NC(=O)[C@H]1O[C@@H]2OC3(CCCCC3)O[C@@H]2[C@H]2OC3(CCCCC3)O[C@H]21`, the “% Inhibition” value is listed as -6% and the Z score is 0.93.
As for `CN(C(=O)c1cc(C2CC2)[nH]n1)C1CCCCC1`, the “% Inhibition” value is -9% and the Z score was found to be 1.33.
For the compound `CCc1ccc(-n2nnc(C(=O)NCc3ccccn3)c2-c2cccnc2)cc1`, the “% Inhibition” value is on record as -5% and the Z score was 0.48.
Taken in the same sequence, the figures for `COc1ccccc1C(=O)Nc1cnc2c(c1)CCC2` were -6% and 0.95.
`Cc1nccnc1N1CCO[C@H](c2ccsc2)C1`: the “% Inhibition” value is -11% and the Z score is on record as 1.39.
On to `CC(C)(C)c1noc(CCC(=O)N[C@@H](CC(=O)O)c2ccccc2Cl)n1`, for which the “% Inhibition” value is listed as -10% and the Z score was 1.17.
As to `CC(=O)N(c1nc(C)c(C(=O)Nc2nnc(C3CC3)s2)s1)C1CCCC1`, the “% Inhibition” value is given as -19% and the Z score is reported as 2.44.
Take `COc1ccccc1COc1cc(NC(=O)Cn2cncn2)ncn1`: the “% Inhibition” value is -11% and the Z score was determined as 2.17.
Turning to `NC(=O)[C@H]1CCCN(C(=O)c2ccc(-c3ccc4c(c3)OCC4)cc2)C1`, the “% Inhibition” value was 10% and the Z score was -1.23.
On to `Cc1noc(C)c1S(=O)(=O)N1CCC(CO)(CCCc2ccccc2)CC1`, for which the “% Inhibition” value is -8% and the Z score worked out at 1.6.
On the same counts, the results for `CCCC(=O)N1CCN(c2nc(Cc3ccc(C)cc3)nc3c2cnn3-c2ccccc2)CC1` are -20% and 2.07.
`Fc1ccc(CCN2CCc3nc(C4CC4)ncc3C2)cc1F`: the “% Inhibition” value is -7% and the Z score was found to be 0.94.
Regarding `Cc1ccc2nc(CN3CCc4nocc4C3)cn2c1`, the “% Inhibition” value was found to be 2% and the Z score is -0.41.
On to `CCCNC(=O)c1ccc(-c2ccc(N3CCCC3)nn2)cc1`, for which the “% Inhibition” value is given as 16% and the Z score is -1.89.
Consider `Cc1[nH]c(=O)n(C(C)(C)C)c(=O)c1Br`, for which the “% Inhibition” value is -10% and the Z score is recorded as 1.58.
As for `Cc1nn(C)c2nc(NCC3(N4CCCC4)CCCC3)sc12`, the “% Inhibition” value is reported as -11% and the Z score turned out to be 2.07.
Taken in the same sequence, the figures for `COc1ccc(CCC(=O)N2CC[C@H](CCOc3ccc(C)cc3)C2)cc1` were 3% and -0.55.
Taken in the same sequence, the figures for `O=C(NCCc1noc(C2CCC2)n1)N1CCCC[C@H]1c1ccc(F)cc1` were -6% and 0.6.
With `O=C(Nc1ccnn1C1CCCC1)[C@H]1CC(=O)N(c2ccc(F)c(F)c2)C1`, the “% Inhibition” value is recorded as -3% and the Z score is given as 0.29.
On the same counts, the results for `COc1cccc(CN/C(=N/c2ccc(C(=O)O)cc2)N2CCN(c3ccccc3F)CC2)c1` are -6% and 0.63.
On to `COCCn1cncc1CNC(=O)[C@H]1CC12CCCCC2`, for which the “% Inhibition” value is recorded as -15% and the Z score is given as 2.43.
With `CN(C)[C@H]1CCN(C(=O)c2coc(COc3ccc(F)cc3)n2)C1`, the “% Inhibition” value is given as -5% and the Z score was 0.72.
For the compound `CC(C)CC(=O)Nc1nnc(-c2ccc3c(c2)OCO3)s1`, the “% Inhibition” value is listed as -4% and the Z score stood at 0.45.
As for `CCOC(=O)c1cc(C(=O)Nc2cc(C)n(Cc3ccc(Cl)cc3Cl)n2)n(C)n1`, the “% Inhibition” value was -8% and the Z score was 1.
As to `COC(CN1CCC[C@H](N2CCCCC2)C1)OC`, the “% Inhibition” value is listed as 10% and the Z score was -1.4.
As for `CN1CCN(C(C)(C)CNC(=O)Cn2nnc3ccccc32)CC1`, the “% Inhibition” value turned out to be 7% and the Z score was -1.23.
`CCN1CN(S(=O)(=O)c2c[nH]c3cccc(F)c23)CC1=O`: the “% Inhibition” value came out at 7% and the Z score is -1.01.
On to `Cc1cc(C(=O)N2CCS(=O)(=O)CC2)c(C)n1-c1ccc(C(C)C)cc1`, for which the “% Inhibition” value is on record as -3% and the Z score came out at 0.33.
On to `COc1ccc(CN2C(=O)CC[C@@]2(C)C(=O)NC2CCCCCC2)c(OC)c1`, for which the “% Inhibition” value came to 2% and the Z score is recorded as -0.32.
Taken in the same sequence, the figures for `O=C(Nn1cnnc1)c1ccc(Oc2ccccc2)o1` were 17% and -2.18.
`CC(C)c1cccc(/N=C(\NCc2ccccn2)NC(=O)c2cccc(F)c2)c1`: the “% Inhibition” value is listed as -4% and the Z score turned out to be 0.68.
On the same counts, the results for `O=C(N[C@H]1COc2ccccc2C1=O)c1[nH]nc2c1CCCC2` are -14% and 1.82.
Turning to `CC1CN(S(=O)(=O)c2ccc3c(c2)OCCCO3)C(C)CO1` (stereo not given), the “% Inhibition” value is reported as -11% and the Z score amounted to 1.58.
Turning to `CC(=O)N(C)CC=Cc1ccc(Br)cc1`, the “% Inhibition” value was -9% and the Z score turned out to be 1.06.
On to `CCCN(CCC)S(=O)(=O)N1CCN(Cc2ccnc(N)c2)CC1`, for which the “% Inhibition” value is recorded as -2% and the Z score is recorded as 0.29.
Consider `Cc1ccc(Oc2nc(N3CCCCC3)nc3c2CN(Cc2ccccc2Cl)CC3)cc1`, for which the “% Inhibition” value was -1% and the Z score is listed as 0.19.
Taken in the same sequence, the figures for `CC(C)(C)OC(=O)CN1CCC[C@@H]1COC(=O)c1ccccc1F` were -7% and 0.76.
Take `Cc1cc(F)cc(-n2cc(NC(=O)CCS(C)(=O)=O)nn2)c1`: the “% Inhibition” value was -9% and the Z score amounted to 1.14.
Take `Cc1ccc(NC(=O)c2csc(-c3ccnc(N4CCOCC4)c3)n2)c(C)c1`: the “% Inhibition” value is -10% and the Z score is 1.33.
As to `Cc1cc(C)cc(OCC(=O)N2CCCC[C@@H]2CCN2CCCCCC2)c1`, the “% Inhibition” value is listed as -1% and the Z score is on record as 0.07.
For `CCCc1cnc(NC(=O)c2ccc(C)[nH]c2=O)s1`, the “% Inhibition” value is on record as -1% and the Z score is reported as 0.16.
For `CCCc1c(C(=O)Nc2csnc2OC)cnn1C1CCCC1`, the “% Inhibition” value is -9% and the Z score amounted to 1.01.
With `CS(=O)(=O)N1CCCC[C@H]1c1nc(-c2ccccn2)no1`, the “% Inhibition” value is given as -10% and the Z score was found to be 1.22.
As to `Cc1cc(C)c(C(=O)N[C@@H](C)CC(=O)O)s1`, the “% Inhibition” value is recorded as 9% and the Z score is given as -1.46.
With `O=C1[C@@H](N2CCOCC2)CCCN1Cc1c(F)cccc1Cl`, the “% Inhibition” value is -3% and the Z score worked out at 0.46.
For `Cc1cc(C)c(Br)c(C(=O)NC(C)(C)C(N)=O)c1`, the “% Inhibition” value is -11% and the Z score was determined as 2.
With `O=C1NC2(CC2)C(=O)N1CCc1ccccc1OC(F)(F)F`, the “% Inhibition” value is reported as -10% and the Z score stood at 1.57.
Taken in the same sequence, the figures for `COC(=O)[C@@]1(C)N[C@@H](c2ccc(F)cc2C)[C@H]2C(=O)N(C)C(=O)[C@H]21` were -4% and 0.5.
